Molecular target: base coil K3 (three heptad repeats), YS2H bait fused to Aga2 with C-terminal FLAG tag (yeast)
Sequence (chain, as listed by the source): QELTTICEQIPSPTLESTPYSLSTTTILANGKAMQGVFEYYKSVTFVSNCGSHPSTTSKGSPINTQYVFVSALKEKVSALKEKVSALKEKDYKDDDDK

B1: CeGFP-Myc (prey of the row 'K3' in Figure 2c, acid coil deleted) (protein)
secreted prey: DKQKNGIKVNFKIRHNIEDGSVQLADHYQQNTPIGDGPVLLPDNHYLSTQSALSKDPNEKRDHMVLLEFVTAAGITLGMDELYKEQKLISEEDL
- MFI of complemented split eGFP, secretory pathway, control row 'K3' (K3-NeGFP-Flag : CeGFP-Myc, acid coil deleted); Flag MFI 129: 8

— US20100075326A1
